Test results: ChEMBL document CHEMBL5606460, “ASAP - DENV-2 NS2B-NS3 protease fluorescence single point” (2024)
Among all 2,000 compounds or so, about 110 (5.5%) showed an effect of 50% or more. Some of the results follow. Residues, ends and D or L forms follow the SMILES beside them. *: point of attachment. pNA = O=[N+]([O-])c1ccc(N*)cc1; Boc = CC(C)(C)OC(=O)*

Target: Genome polyprotein (dengue virus type 2) (UniProt P29990)
[1] = Thailand/16681/1984, Concentration 25.0 uM, Number of replicates 1.0

NCc1cccc(NC(=O)[C@@H](Cc2c[nH]c3ccccc23)NC(=O)OCc2ccccc2)c1
inhibition (Thailand/16681/1984, Concentration 49.5 uM, Number of replicates 2.0, Standard deviation 0.5533931785698599 %): -3.79% | inhibition (Thailand/16681/1984, Concentration 99.01 uM, Number of replicates 2.0, Standard deviation 0.8728976475377288 %): -3.24% | inhibition (Thailand/16681/1984, Concentration 198.0 uM, Number of replicates 2.0, Standard deviation 1.5348647219639115 %): 0.836%

Cn1cc(NC(=O)c2ccccc2C(F)(F)F)c(-c2cnn(CCF)c2)n1
inhibition (Thailand/16681/1984, Concentration 49.5 uM, Number of replicates 2.0, Standard deviation 1.0351827811766225 %): -1.26% | inhibition (Thailand/16681/1984, Concentration 99.01 uM, Number of replicates 2.0, Standard deviation 0.6202752538285244 %): -1.64% | inhibition (Thailand/16681/1984, Concentration 198.0 uM, Number of replicates 2.0, Standard deviation 0.5771619780812757 %): -1.73%

C[Si](C)(C)CN(Cc1ccccc1)C(=O)C1CCN(c2ccc(C=O)cc2)CC1
inhibition [1]: 11.5%

CNC(=O)c1cc(Cl)ccc1NS(=O)(=O)c1ccc(Oc2ccccc2Cl)cc1
inhibition (Thailand/16681/1984, Concentration 49.5 uM, Number of replicates 2.0, Standard deviation 2.214504665393713 %): 57.1% | inhibition (Thailand/16681/1984, Concentration 99.01 uM, Number of replicates 2.0, Standard deviation 0.44410505168195935 %): 89.7% | inhibition (Thailand/16681/1984, Concentration 198.0 uM, Number of replicates 2.0, Standard deviation 0.048202507704939286 %): 89.7%

O=Cc1ccc(N2CCC(C(=O)NC3(c4cccc(F)c4)CC3)CC2)cc1
inhibition [1]: 11.9%

CC(C)[C@H](CNC(=O)C1CCN(c2ccc(C=O)cc2)CC1)N1CCCC1
inhibition [1]: 12.6%

O=C(O)c1cnn([C@H]2CCCN(C(=O)c3c[nH]c4ccccc34)C2)c1
inhibition (Thailand/16681/1984, Concentration 49.5 uM, Number of replicates 2.0, Standard deviation 0.2879130457854372 %): -2.6% | inhibition (Thailand/16681/1984, Concentration 99.01 uM, Number of replicates 2.0, Standard deviation 1.3824179166362038 %): -0.821% | inhibition (Thailand/16681/1984, Concentration 198.0 uM, Number of replicates 2.0, Standard deviation 0.2454608012102332 %): 0.437%

Cc1nnc([C@H](C)n2cc(C3CCNCC3)c(C)n2)o1
inhibition (Thailand/16681/1984, Concentration 49.5 uM, Number of replicates 2.0, Standard deviation 23.401160981224884 %): 6.09% | inhibition (Thailand/16681/1984, Concentration 99.01 uM, Number of replicates 2.0, Standard deviation 17.471832455878243 %): 11.7% | inhibition (Thailand/16681/1984, Concentration 198.0 uM, Number of replicates 2.0, Standard deviation 4.4669335919131345 %): -3.53%

O=Cc1ccc(N2CCC(C(=O)Nc3c(F)cc(F)cc3[N+](=O)[O-])CC2)cc1
inhibition [1]: 15.2%

Nc1cccc2nccnc12
inhibition (Thailand/16681/1984, Concentration 49.95 uM, Number of replicates 2.0, Standard deviation 5.295989560794225 %): -6.11% | inhibition (Thailand/16681/1984, Concentration 99.9 uM, Number of replicates 2.0, Standard deviation 5.261439871388237 %): -3.3%

Cc1cc(CO)c2cccc(C[C@H](NC(=O)CN3CCOCC3)C(=O)O)c2n1
inhibition (Thailand/16681/1984, Concentration 49.95 uM, Number of replicates 2.0, Standard deviation 0.9688152767914274 %): 2.24% | inhibition (Thailand/16681/1984, Concentration 99.9 uM, Number of replicates 2.0, Standard deviation 0.45062736078271726 %): 9.49%

O=C(NCCc1c[nH]nc1O)[C@]1(c2ccc(F)cc2)CCCNC1
inhibition (Thailand/16681/1984, Concentration 49.5 uM, Number of replicates 2.0, Standard deviation 1.1119212341343476 %): 0.072% | inhibition (Thailand/16681/1984, Concentration 99.01 uM, Number of replicates 2.0, Standard deviation 0.36955187067267553 %): 0.004% | inhibition (Thailand/16681/1984, Concentration 198.0 uM, Number of replicates 2.0, Standard deviation 0.8691816863450689 %): -0.069%

O=Cc1ccc(N2CCC(C(=O)N3CCN(Cc4ccc(OC(F)(F)F)cc4)CC3)CC2)cc1
inhibition [1]: 10.9%

Cc1cc(CO)c2cccc(Cc3cccc(NC(=O)CN4CCOCC4)c3)c2n1
inhibition (Thailand/16681/1984, Concentration 49.95 uM, Number of replicates 2.0, Standard deviation 0.37901345884173465 %): -3.12% | inhibition (Thailand/16681/1984, Concentration 99.9 uM, Number of replicates 2.0, Standard deviation 0.45265428702130317 %): 1.92%

CN1CCN(c2ccc(NC(=O)C3CCN(c4ccc(C=O)cc4)CC3)cc2F)CC1
inhibition [1]: 9.12%

O=Cc1ccc(N2CCC(C(=O)NC[C@H](O)c3ccc(O)c(O)c3)CC2)cc1
inhibition [1]: 36.5%

CSCC[C@H](NC(=O)OC(C)(C)C)C(=O)N1CCC[C@H]1C(=O)Nc1ccc([N+](=O)[O-])cc1 (Boc-Met-Pro-pNA)
inhibition (Thailand/16681/1984, Concentration 49.5 uM, Number of replicates 2.0, Standard deviation 0.6934296230825803 %): 10.3% | inhibition (Thailand/16681/1984, Concentration 99.01 uM, Number of replicates 2.0, Standard deviation 0.4989876662884813 %): 17.1% | inhibition (Thailand/16681/1984, Concentration 198.0 uM, Number of replicates 2.0, Standard deviation 0.32485037523299065 %): 29.3%

Cc1cc(CO)c2cccc(CC(=O)NCc3sccc3C)c2n1
inhibition (Thailand/16681/1984, Concentration 49.95 uM, Number of replicates 2.0, Standard deviation 0.3413314788746907 %): 44% | inhibition (Thailand/16681/1984, Concentration 99.9 uM, Number of replicates 2.0, Standard deviation 0.321257440691134 %): 63.7%

Cc1cc(CO)c2cccc(Cc3ccccc3C(=O)N[C@@H](CCCN)C(=O)O)c2n1
inhibition (Thailand/16681/1984, Concentration 49.95 uM, Number of replicates 2.0, Standard deviation 1.450239339781055 %): -9.67% | inhibition (Thailand/16681/1984, Concentration 99.9 uM, Number of replicates 2.0, Standard deviation 1.946109361538337 %): 0.782%

CCc1nc([C@@H](C)NC(=O)c2ccc(O)c(NC(=O)c3ccncc3F)c2C)n[nH]1
inhibition (Thailand/16681/1984, Concentration 49.5 uM, Number of replicates 2.0, Standard deviation 0.640305880758115 %): -3.94% | inhibition (Thailand/16681/1984, Concentration 99.01 uM, Number of replicates 2.0, Standard deviation 0.7647439452243474 %): -3.61% | inhibition (Thailand/16681/1984, Concentration 198.0 uM, Number of replicates 2.0, Standard deviation 1.5490355987880475 %): -3.27%

O=Cc1ccc(N2CCC(C(=O)N3CCN(c4ccccc4Cl)CC3)CC2)cc1
inhibition [1]: 11.1%

O=Cc1ccc(N2CCC(C(=O)N(Cc3ccc([N+](=O)[O-])cc3)C3CC3)CC2)cc1
inhibition [1]: 13.8%

O=Cc1ccc(N2CCC(C(=O)N3CC=C(c4ccccc4)CC3)CC2)cc1
inhibition [1]: 5%
